Results reported in patent US20240124614A1.

Experiments:
[1] = biological target: ECM (extracellular matrix); assay: ECL plate assay on coated ECM (Matrigel)
[2] = biological target: ECM (extracellular matrix); assay: ECL plate assay on coated ECM (Matrigel); remark: listed apart in the source
[3] = biological target: ECM (extracellular matrix); assay: ECL plate assay on coated ECM (Matrigel); remark: listed apart in the source
[4] = biological target: ECM (extracellular matrix); assay: ECL plate assay on coated ECM (Matrigel), antibody 3 ug/mL, pH 5.8
[5] = biological target: ECM (extracellular matrix); assay: ECL plate assay on coated ECM (Matrigel), antibody 3 ug/mL, pH 7.4

B1: hT4VL.FRv4 (antibody, human IgG1, kappa)
heavy: EVQLVESGGGLVQPGGSLRLSCAASGYTFTSYVMHWVRQAPGKGLEWVSAINPYNDGNYYADSVKGRFTISRDNSRKTLYLQMNSLRAEDTAVYYCARGAYKRGYAMDYWGQGTTVTVSSASTKGPSVFPLAPSSKSTSGGTAALGCLVKDYFPEPVTVSWNSGALTSGVHTFPAVLQSSGLYSLSSVVTVPSSSLGTQTYICNVNHKPSNTKVDKKV[human IgG1 Fc not given here]GSGGGSVTGYRLFEEIL
light: DLVMTQSPSSLSASVGDRVTITCKSSQSLFNSRTRKNYLAWYQQKPGKAPKLLIYWASTRESGVPARFSGSGSGTDFTLTISSLEPEDFAVYYCQQYYYHMYTFGQGTKVEIKRTVAAPSVFIFPPSDEQLKSGTASVVCLLNNFYPREAKVQWKVDNALQSGNSQESVTEQDSKDSTYSLSSTLTLSKADYEKHKVYACEVTHQGLSSPVTKSFNRGEC
ECM binding vs Control Ab (pH 5.8) (fold vs Control Ab) [1]: 99.1 | ECM binding vs Control Ab (pH 7.4) (fold vs Control Ab) [1]: 15.5 | ECM binding vs Control Ab (pH 5.8) (fold vs Control Ab) [2]: 71.4 | ECM binding vs Control Ab (pH 7.4) (fold vs Control Ab) [2]: 13.1 | ECM binding vs Control Ab (pH 5.8) (fold vs Control Ab) [3]: 91.9 | ECM binding vs Control Ab (pH 7.4) (fold vs Control Ab) [3]: 12 | ECM binding vs Control Ab (pH 5.8) (ratio vs Control Ab) [4]: 79.7 | ECM binding vs Control Ab (pH 7.4) (ratio vs Control Ab) [5]: 9.89

B2: hT4VL.FRv40559 (antibody, human IgG1, kappa)
heavy: EVQLVESGGGLVQPGGSLRLSCAASGYTFTSYVMHWVRQAPGKGLEWVSAINPYNDGNYYADSVKGRFTISRDNSRKTLYLQMNSLRAEDTAVYYCARGAYKRGYAMDYWGQGTTVTVSSASTKGPSVFPLAPSSKSTSGGTAALGCLVKDYFPEPVTVSWNSGALTSGVHTFPAVLQSSGLYSLSSVVTVPSSSLGTQTYICNVNHKPSNTKVDKKV[human IgG1 Fc not given here]GSGGGSVTGYRLFEEIL
light: DIQMTQSPSSLSASVGDRVTITCKSSQSLFNDKTRKNYLAWYQQKPGKAPKLLIYWASTRESGVPARFSGSGSGTDFTLTISSLEPEDFAVYYCQQFYYEPYTFGQGTKVEIKRTVAAPSVFIFPPSDEQLKSGTASVVCLLNNFYPREAKVQWKVDNALQSGNSQESVTEQDSKDSTYSLSSTLTLSKADYEKHKVYACEVTHQGLSSPVTKSFNRGEC
ECM binding vs Control Ab (pH 5.8) (ratio vs Control Ab) [4]: 41.9 | ECM binding vs Control Ab (pH 7.4) (ratio vs Control Ab) [5]: 2.4

B3: hT4VL.FRv40560 (antibody, human IgG1, kappa)
heavy: EVQLVESGGGLVQPGGSLRLSCAASGYTFTSYVMHWVRQAPGKGLEWVSAINPYNDGNYYADSVKGRFTISRDNSRKTLYLQMNSLRAEDTAVYYCARGAYKRGYAMDYWGQGTTVTVSSASTKGPSVFPLAPSSKSTSGGTAALGCLVKDYFPEPVTVSWNSGALTSGVHTFPAVLQSSGLYSLSSVVTVPSSSLGTQTYICNVNHKPSNTKVDKKV[human IgG1 Fc not given here]GSGGGSVTGYRLFEEIL
light: DIQMTQSPSSLSASVGDRVTITCKSSQSLFNDKTRKNYLAWYQQKPGKAPKLLIYWASTRESGVPARFSGSGSGTDFTLTISSLEPEDFAVYYCQQEYYQPYTFGQGTKVEIKRTVAAPSVFIFPPSDEQLKSGTASVVCLLNNFYPREAKVQWKVDNALQSGNSQESVTEQDSKDSTYSLSSTLTLSKADYEKHKVYACEVTHQGLSSPVTKSFNRGEC
ECM binding vs Control Ab (pH 5.8) (ratio vs Control Ab) [4]: 56.7 | ECM binding vs Control Ab (pH 7.4) (ratio vs Control Ab) [5]: 3.13

B4: hT4VL.FRv40561 (antibody, human IgG1, kappa)
heavy: EVQLVESGGGLVQPGGSLRLSCAASGYTFTSYVMHWVRQAPGKGLEWVSAINPYNDGNYYADSVKGRFTISRDNSRKTLYLQMNSLRAEDTAVYYCARGAYKRGYAMDYWGQGTTVTVSSASTKGPSVFPLAPSSKSTSGGTAALGCLVKDYFPEPVTVSWNSGALTSGVHTFPAVLQSSGLYSLSSVVTVPSSSLGTQTYICNVNHKPSNTKVDKKV[human IgG1 Fc not given here]GSGGGSVTGYRLFEEIL
light: DIQMTQSPSSLSASVGDRVTITCKSSQSLFNDKTRKNYLAWYQQKPGKAPKLLIYWASTRESGVPARFSGSGSGTDFTLTISSLEPEDFAVYYCQQFYYQPYTFGQGTKVEIKRTVAAPSVFIFPPSDEQLKSGTASVVCLLNNFYPREAKVQWKVDNALQSGNSQESVTEQDSKDSTYSLSSTLTLSKADYEKHKVYACEVTHQGLSSPVTKSFNRGEC
ECM binding vs Control Ab (pH 5.8) (ratio vs Control Ab) [4]: 59.1 | ECM binding vs Control Ab (pH 7.4) (ratio vs Control Ab) [5]: 3.83

B5: hT4VL.FRv40562 (antibody, human IgG1, kappa)
heavy: EVQLVESGGGLVQPGGSLRLSCAASGYTFTSYVMHWVRQAPGKGLEWVSAINPYNDGNYYADSVKGRFTISRDNSRKTLYLQMNSLRAEDTAVYYCARGAYKRGYAMDYWGQGTTVTVSSASTKGPSVFPLAPSSKSTSGGTAALGCLVKDYFPEPVTVSWNSGALTSGVHTFPAVLQSSGLYSLSSVVTVPSSSLGTQTYICNVNHKPSNTKVDKKV[human IgG1 Fc not given here]GSGGGSVTGYRLFEEIL
light: DIQMTQSPSSLSASVGDRVTITCKSSQSLFNDKTRKNYLAWYQQKPGKAPKLLIYWASTRESGVPARFSGSGSGTDFTLTISSLEPEDFAVYYCQQEYYQMYTFGQGTKVEIKRTVAAPSVFIFPPSDEQLKSGTASVVCLLNNFYPREAKVQWKVDNALQSGNSQESVTEQDSKDSTYSLSSTLTLSKADYEKHKVYACEVTHQGLSSPVTKSFNRGEC
ECM binding vs Control Ab (pH 5.8) (ratio vs Control Ab) [4]: 31.1 | ECM binding vs Control Ab (pH 7.4) (ratio vs Control Ab) [5]: 2.03

B6: hT4VL.FRv40564 (antibody, human IgG1, kappa)
heavy: EVQLVESGGGLVQPGGSLRLSCAASGYTFTSYVMHWVRQAPGKGLEWVSAINPYNDGNYYADSVKGRFTISRDNSRKTLYLQMNSLRAEDTAVYYCARGAYKRGYAMDYWGQGTTVTVSSASTKGPSVFPLAPSSKSTSGGTAALGCLVKDYFPEPVTVSWNSGALTSGVHTFPAVLQSSGLYSLSSVVTVPSSSLGTQTYICNVNHKPSNTKVDKKV[human IgG1 Fc not given here]GSGGGSVTGYRLFEEIL
light: DIQMTQSPSSLSASVGDRVTITCKSSQSLFNEKTRKNYLAWYQQKPGKAPKLLIYWASTRESGVPARFSGSGSGTDFTLTISSLEPEDFAVYYCQQEYYEPYTFGQGTKVEIKRTVAAPSVFIFPPSDEQLKSGTASVVCLLNNFYPREAKVQWKVDNALQSGNSQESVTEQDSKDSTYSLSSTLTLSKADYEKHKVYACEVTHQGLSSPVTKSFNRGEC
ECM binding vs Control Ab (pH 5.8) (ratio vs Control Ab) [4]: 42.5 | ECM binding vs Control Ab (pH 7.4) (ratio vs Control Ab) [5]: 2.65

B7: hT4VL.FRv40565 (antibody, human IgG1, kappa)
heavy: EVQLVESGGGLVQPGGSLRLSCAASGYTFTSYVMHWVRQAPGKGLEWVSAINPYNDGNYYADSVKGRFTISRDNSRKTLYLQMNSLRAEDTAVYYCARGAYKRGYAMDYWGQGTTVTVSSASTKGPSVFPLAPSSKSTSGGTAALGCLVKDYFPEPVTVSWNSGALTSGVHTFPAVLQSSGLYSLSSVVTVPSSSLGTQTYICNVNHKPSNTKVDKKV[human IgG1 Fc not given here]GSGGGSVTGYRLFEEIL
light: DIQMTQSPSSLSASVGDRVTITCKSSQSLFNEKTRKNYLAWYQQKPGKAPKLLIYWASTRESGVPARFSGSGSGTDFTLTISSLEPEDFAVYYCQQFYYEPYTFGQGTKVEIKRTVAAPSVFIFPPSDEQLKSGTASVVCLLNNFYPREAKVQWKVDNALQSGNSQESVTEQDSKDSTYSLSSTLTLSKADYEKHKVYACEVTHQGLSSPVTKSFNRGEC
ECM binding vs Control Ab (pH 5.8) (ratio vs Control Ab) [4]: 39.7 | ECM binding vs Control Ab (pH 7.4) (ratio vs Control Ab) [5]: 2.62

B8: hT4VL.FRv40566 (antibody, human IgG1, kappa)
heavy: EVQLVESGGGLVQPGGSLRLSCAASGYTFTSYVMHWVRQAPGKGLEWVSAINPYNDGNYYADSVKGRFTISRDNSRKTLYLQMNSLRAEDTAVYYCARGAYKRGYAMDYWGQGTTVTVSSASTKGPSVFPLAPSSKSTSGGTAALGCLVKDYFPEPVTVSWNSGALTSGVHTFPAVLQSSGLYSLSSVVTVPSSSLGTQTYICNVNHKPSNTKVDKKV[human IgG1 Fc not given here]GSGGGSVTGYRLFEEIL
light: DIQMTQSPSSLSASVGDRVTITCKSSQSLFNEKTRKNYLAWYQQKPGKAPKLLIYWASTRESGVPARFSGSGSGTDFTLTISSLEPEDFAVYYCQQEYYQPYTFGQGTKVEIKRTVAAPSVFIFPPSDEQLKSGTASVVCLLNNFYPREAKVQWKVDNALQSGNSQESVTEQDSKDSTYSLSSTLTLSKADYEKHKVYACEVTHQGLSSPVTKSFNRGEC
ECM binding vs Control Ab (pH 5.8) (ratio vs Control Ab) [4]: 50 | ECM binding vs Control Ab (pH 7.4) (ratio vs Control Ab) [5]: 3.24

B9: hT4VL.FRv40567 (antibody, human IgG1, kappa)
heavy: EVQLVESGGGLVQPGGSLRLSCAASGYTFTSYVMHWVRQAPGKGLEWVSAINPYNDGNYYADSVKGRFTISRDNSRKTLYLQMNSLRAEDTAVYYCARGAYKRGYAMDYWGQGTTVTVSSASTKGPSVFPLAPSSKSTSGGTAALGCLVKDYFPEPVTVSWNSGALTSGVHTFPAVLQSSGLYSLSSVVTVPSSSLGTQTYICNVNHKPSNTKVDKKV[human IgG1 Fc not given here]GSGGGSVTGYRLFEEIL
light: DIQMTQSPSSLSASVGDRVTITCKSSQSLFNEKTRKNYLAWYQQKPGKAPKLLIYWASTRESGVPARFSGSGSGTDFTLTISSLEPEDFAVYYCQQFYYQPYTFGQGTKVEIKRTVAAPSVFIFPPSDEQLKSGTASVVCLLNNFYPREAKVQWKVDNALQSGNSQESVTEQDSKDSTYSLSSTLTLSKADYEKHKVYACEVTHQGLSSPVTKSFNRGEC
ECM binding vs Control Ab (pH 5.8) (ratio vs Control Ab) [4]: 49.2 | ECM binding vs Control Ab (pH 7.4) (ratio vs Control Ab) [5]: 3.81

B10: hT4VL.FRv40568 (antibody, human IgG1, kappa)
heavy: EVQLVESGGGLVQPGGSLRLSCAASGYTFTSYVMHWVRQAPGKGLEWVSAINPYNDGNYYADSVKGRFTISRDNSRKTLYLQMNSLRAEDTAVYYCARGAYKRGYAMDYWGQGTTVTVSSASTKGPSVFPLAPSSKSTSGGTAALGCLVKDYFPEPVTVSWNSGALTSGVHTFPAVLQSSGLYSLSSVVTVPSSSLGTQTYICNVNHKPSNTKVDKKV[human IgG1 Fc not given here]GSGGGSVTGYRLFEEIL
light: DIQMTQSPSSLSASVGDRVTITCKSSQSLFESSTSKNYLAWYQQKPGKAPKLLIYWASTRESGVPARFSGSGSGTDFTLTISSLEPEDFAVYYCYQYYYQPYTFGQGTKVEIKRTVAAPSVFIFPPSDEQLKSGTASVVCLLNNFYPREAKVQWKVDNALQSGNSQESVTEQDSKDSTYSLSSTLTLSKADYEKHKVYACEVTHQGLSSPVTKSFNRGEC
ECM binding vs Control Ab (pH 5.8) (ratio vs Control Ab) [4]: 11.8 | ECM binding vs Control Ab (pH 7.4) (ratio vs Control Ab) [5]: 1.76

Read-outs that look alike come from different tables or passages of the source.
